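In this assay, cells in 96-well plates receive the compound at five concentrations for 48 hours. Endpoints are linearly interpolated between the surrounding concentrations. The concentration for 50% growth inhibition is given as GI50. Definition used: TGI = concentration required for complete inhibition of growth.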
Test system: NCI-H322M lung
Assay: NCI-60 cell line screen, 48 h

`CCCn1c(=O)c2[nH]c(-c3ccc(OCc4nc5ccccc5[nH]4)cc3)nc2n(CCC)c1=O` was tested, and the GI50 was 19 µM and the TGI was > 100 µM.

Source: PubChem BioAssay (NCI)
